Assay results from paper PMC12136788.
Where a chain is given by its changes, count along the chain named. The list shows a part of the results.

B1: 110260516_110260636_141_5pUTR_ENSMUSG00000020623_ENSMUST00000020949|mouse|control|control (ssRNA)
RNA: GGGAGUUCUACAGUCCGACGAUCCUGCAGGCGUGCAAUCUUCAUGCAAGUGGAGUUUCUCUUGACCGAUGCAGCAGAUGGACUUUCAGGGAGUCAAGGUGGAAUUGCACACCUUGCAAAACAGUCUAGAAAGUGAUUUUUCCCCAACAGAGGAUUGAGCAUCA
B2: chr14:66974463:66974464:+_ENSMUSG00000022044_ENSMUST00000074523|mus_hu|mus_mus_mus_hu_False|48_78 (ssRNA)
RNA: GGGAGUUCUACAGUCCGACGAUCUUGUAGGACGACUUAUUCAGGGGAUCGGCCAGGAAGCAAGAGCAGAACAAGGACACCAGCGGGAGUUCCUUCAUCUUCUCUUUGUAGGCAGCAAGGGUCAUGUUUCUGGGAUCUGGUGGCCAACAGAGGAUUGAGCAUCA
B3: 61648417_61664575_770_CDS_ENSMUSG00000004798_ENSMUST00000004920|mouse|control|control (ssRNA)
RNA: GGGAGUUCUACAGUCCGACGAUCAAACACUCUGAUAGUAUCUUCACUCAGAGUUCCUUUAGCUUGCAAAUAAUCUGCCAGGUCUCCACCAUUGCAAUACUCCAUCACCAGAAAGACAGAGUUGGGCAAUUCCUGAACAUCAUACAACAGAGGAUUGAGCAUCA
B4: chr12:57066556:57066557:-_ENSG00000110958_ENST00000262033|hu_mus|FALSE|FALSE (ssRNA)
RNA: GGGAGUUCUACAGUCCGACGAUCGUCUGUUCUUUUAUGCUUGGAAUCAUUUGGAUCGAUACAAUGAAAAAGAUCAAUUUCAUUUAAAUGCUUAAAAUUAUCGCUUCCUCCAAGACAACUGAAAGUAAGUUUGGAUUUUUCAAACAACAGAGGAUUGAGCAUCA
B5: chr16:94690367:94690368:+_ENSMUSG00000040785_ENSMUST00000117648|mus_hu|FALSE|FALSE (ssRNA)
RNA: GGGAGUUCUACAGUCCGACGAUCCUAUAUUUACCACUGUCUAAAAGUCACAAAACAAUAUCUAAUUUUUUCAUGGUUUCUAAUGCAGUUACAGUUUUGUUCUUAGGUCACAGUACAAGACUGCAUGCAUACUUUACACAAAUACAACAGAGGAUUGAGCAUCA
B6: chr12:39756943:39756944:-_ENSG00000139116_ENST00000544797|hu_mus|hu_hu_hu_mus_False|1_28 (ssRNA)
RNA: GGGAGUUCUACAGUCCGACGAUCGGUUUGGCUGUUACCCCCAAGGGAAUCCUGCAAGAGUCUUGUCAGCUUAGAGUCUCUGUAAGGGACAUGGGUGGCUCUCUUGCUCUUGUCUCCCAAGGCGCUGAUUACAUUCCCAAGUGCCAACAGAGGAUUGAGCAUCA
B7: chr3:19126325:19126326:-_ENSMUSG00000069094_ENSMUST00000091314|mus_mus|FALSE|FALSE (ssRNA)
RNA: GGGAGUUCUACAGUCCGACGAUCGCUUGCUCUACAUAAGACCACUGAAAACAACUUACAAAAGUGGAAUGUUUUAAGUCUAAAAUUAGUCCUUAAAUUUUAUCCUAGAAAACAUCUACUCACAUCAAAAGGUCCGCCAAAGGGCAACAGAGGAUUGAGCAUCA
B8: chr9:95013113:95013114:-_ENSG00000196305_ENST00000443024|hu_hu|hu_hu_hu_mus_False|8_78 (ssRNA)
RNA: GGGAGUUCUACAGUCCGACGAUCCUCAGUCAGAAAGGGCGUGUAAGGGGCCAUCAGUCUGCAAAGAGAAAGCAGGACACUGAACAGUGUCUCCAGAGCCAUGACACAGUCUUCCACCCCACUCUCACCCUUUAAUCUCCUCCUCAACAGAGGAUUGAGCAUCA
B9: chr5:46091440:46091441:-_ENSMUSG00000015882_ENSMUST00000045586|mus_hu|FALSE|FALSE (ssRNA)
RNA: GGGAGUUCUACAGUCCGACGAUCUUGGUGAUAUCUGCCUGGGAAAUCUCUCUUCCUAAAGUAUUUGUAUAUGGGAGUCCUUGUUUGUGAAUGUUUCCUGGAUUAGGGAGGUGUCAACAUAAAUGUAUUAUUAACCAUGAAGCUCAACAGAGGAUUGAGCAUCA
B10: chr1:39494447:39494448:+_ENSG00000168653_ENST00000372967|hu_mus|hu_hu_hu_mus_False|18_108 (ssRNA)
RNA: GGGAGUUCUACAGUCCGACGAUCGCAUCGACCAGCCUUCUUAUAGGGCUGUUCUGCGCUUAGGAACAUAAAGUGCCGGUCCAGGCUGAUGCCCAGCUUUUUCUGUAUGUCAAGGAAAGGCAUGGCCCUGCAGUGCCCUUGUCACAACAGAGGAUUGAGCAUCA
B11: chr4:48853911:48853912:+_ENSG00000109180_ENST00000264312|hu_mus|FALSE|FALSE (ssRNA)
RNA: GGGAGUUCUACAGUCCGACGAUCCUCGUUCAUAGAAGCACUAAAUGGAAUUGGCUCAUAACGAGGAAGCGCCUCCUUUUCUAUGUUGUCUGCUGCUGGAGAUGUCCCGAAAGAGGACUGACCACUCACAUUUGAGUCAAAUUUCAACAGAGGAUUGAGCAUCA
B12: chr14:66974463:66974464:+_ENSMUSG00000022044_ENSMUST00000074523|mus_hu|mus_mus_mus_hu_False|18_28 (ssRNA)
RNA: B2 RNA with A62G, U89C, G107A, A113U, G119A
B13: chr9:64573345:64573346:-_ENSMUSG00000004771_ENSMUST00000172298|mus_hu|FALSE|FALSE (ssRNA)
RNA: GGGAGUUCUACAGUCCGACGAUCAGAAACAAUGCGGUAAAUCUCUGUUAAAAUUGUCUGAAAAGCAGCUUCUACAUUUGUAGAGUCUAGGGCCGAAGUUUCAAUGAAUGACAAACCAUUCUUUUCUGCAAAAGCUCUUGCUUCCAACAGAGGAUUGAGCAUCA
B14: chr17:65740002:65740003:+_ENSG00000130935_ENST00000581375|hu_hu|hu_hu_hu_mus_False|58_88 (ssRNA)
RNA: GGGAGUUCUACAGUCCGACGAUCAACAAAUCUUUCUUCCCUGGACGCAAGAGUUCAUUCAUAUUAAAAAAAAUAUAUGUCUAUGAAGUUAGGUGUGGUGGCCACACCUUUACUCCCAGCACUUUGGGAGGUGGAUCUCUGAGUCAACAGAGGAUUGAGCAUCA

The binders below were run against T1, UNK ZnF1-3 (human, UniProt Q9C0B0 31-174) (assay: nsRBNS (natural sequence RNA bind-n-seq); RBNS binding buffer (assumed for nsRBNS): 25 mM Tris pH 7.5, 150 mM KCl, 3 mM MgCl2, 0.01% Triton X-100, 500 ug/ml BSA, 20 U/ml SUPERase-In, 4 C; UNK is unkempt and MSI1 is Musashi-1; names of the RNAs are library labels; protein concentration not given here; high values mean tight binding).
T1 sequence: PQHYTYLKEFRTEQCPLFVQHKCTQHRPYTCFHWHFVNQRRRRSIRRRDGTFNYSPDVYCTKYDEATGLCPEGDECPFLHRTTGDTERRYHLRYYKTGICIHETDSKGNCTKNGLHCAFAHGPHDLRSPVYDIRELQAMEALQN

Binder	binding signal [enrichment R]
B1	0.878
B2	2.53
B3	1.26
B4	0.829
B5	0.548
B6	0.644
B7	1.04
B8	1.16
B9	1.61
B10	0.963
B11	1.45
B12	2.06
B13	0.8
B14	1.03
